The BET-seq Pho4 binding data (Le et al. 2018)
The list shows a part of the results. The energies were worked out here from pooled read counts, against the library average; single values are noisy.

Each sequence was assayed against T1, Pho4 (S. cerevisiae) (UniProt P07270) (assay: relative binding free energy (BET-seq); higher = weaker binding). Conditions: reference: library average.
T1 sequence: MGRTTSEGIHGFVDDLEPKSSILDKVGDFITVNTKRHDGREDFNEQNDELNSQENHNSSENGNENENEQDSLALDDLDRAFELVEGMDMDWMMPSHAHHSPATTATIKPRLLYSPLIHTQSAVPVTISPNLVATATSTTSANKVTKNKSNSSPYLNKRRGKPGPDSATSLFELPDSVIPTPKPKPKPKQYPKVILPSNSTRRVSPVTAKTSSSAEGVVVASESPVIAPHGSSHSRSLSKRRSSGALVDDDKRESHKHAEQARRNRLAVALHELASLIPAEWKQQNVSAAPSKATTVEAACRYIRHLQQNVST

Sequence	relative binding free energy
TTGAGCACGTGAGTTT	0.2 kcal/mol
TAGGGCACGTGGTTCG	-0.18 kcal/mol
AAGTACACGTGGTTCT	0.11 kcal/mol
ATTGTCACGTGACTTT	0.07 kcal/mol
TTGTCCACGTGCTTGG	0.2 kcal/mol
GGATCCACGTGGGTGA	-0.05 kcal/mol
GTTTGCACGTGGATCT	0.08 kcal/mol
GGTGTCACGTGTGGTT	0.14 kcal/mol
ATGGTCACGTGCGGTT	0.14 kcal/mol
TGTGGCACGTGACTTT	0.05 kcal/mol
GACTTCACGTGCGTGT	0.34 kcal/mol
CTTGTCACGTGATCGG	0.21 kcal/mol
CAGTTCACGTGTTGTA	0.05 kcal/mol
AGGTACACGTGGATCG	0.09 kcal/mol
GAAGTCACGTGGGCGG	0.05 kcal/mol
TTGTGCACGTGAATTT	0.33 kcal/mol
AAAGTCACGTGGTTGC	0.09 kcal/mol
AATTGCACGTGTCGGA	0.2 kcal/mol
GTTTGCACGTGCATGG	0.1 kcal/mol
TTAATCACGTGATGTC	0.38 kcal/mol
ACGTTCACGTGATTGG	0.43 kcal/mol
GCGTGCACGTGGAGTA	-0.03 kcal/mol
TGCAGCACGTGGAGTA	-0.16 kcal/mol
ATGGGCACGTGGACCG	-0.05 kcal/mol
TGGGTCACGTGCGTTG	0.02 kcal/mol
TGGTCCACGTGTGTCG	-0.06 kcal/mol

Sequence	relative binding free energy
ACGGTCACGTGTGGTG	0.07 kcal/mol
GTGCTCACGTGAGTTG	0.32 kcal/mol
TACGGCACGTGTGATG	0.05 kcal/mol
TTATTCACGTGTATTT	0.24 kcal/mol
TTTATCACGTGTGGGT	0.18 kcal/mol
ATATTCACGTGGAGGT	0.21 kcal/mol
TGCGGCACGTGTGGCA	-0.15 kcal/mol
GTTTGCACGTGTCTCG	0.09 kcal/mol
ATGGCCACGTGTATTT	-0.09 kcal/mol
GGTCGCACGTGGGCTT	-0.2 kcal/mol
AGAATCACGTGGGTAA	0.03 kcal/mol
TGCTGCACGTGGTGAA	-0.03 kcal/mol
GATGTCACGTGGACGG	0.25 kcal/mol
GCTGTCACGTGTTTTT	0.08 kcal/mol
CGTTGCACGTGTTGTA	-0.07 kcal/mol
GTCGGCACGTGGTGTA	-0.22 kcal/mol
TGCACCACGTGTGGGT	-0.07 kcal/mol
TGCGTCACGTGGGCAT	-0.04 kcal/mol
GAGGTCACGTGAGGCT	0.45 kcal/mol
GCGGACACGTGTGGGT	0.08 kcal/mol
TCTGACACGTGGTATG	-0.06 kcal/mol
AACGGCACGTGAGGTT	0.1 kcal/mol
GTTTTCACGTGTCGGT	0.39 kcal/mol
GCGGTCACGTGTTAAG	0.1 kcal/mol
AGGTCCACGTGTGTGG	-0.01 kcal/mol
ACTTACACGTGGTTAT	0.13 kcal/mol

Sequence	relative binding free energy
TGTAGCACGTGCGGGA	-0.1 kcal/mol
TTTAGCACGTGGCGGC	-0.07 kcal/mol
ATTATCACGTGGCTAT	0.06 kcal/mol
GGGTTCACGTGCTTAT	0.38 kcal/mol
GGAGGCACGTGGGCAT	-0.21 kcal/mol
TTTTCCACGTGTGTAG	0.09 kcal/mol
TTATACACGTGGGCGT	-0.1 kcal/mol
GAATACACGTGTGGTA	0.21 kcal/mol
ATAATCACGTGGTGGT	0.13 kcal/mol
ACAGGCACGTGGTATG	-0.22 kcal/mol
ATGGGCACGTGTACTT	0.07 kcal/mol
CGGAGCACGTGCTGTG	-0.13 kcal/mol
GTTGTCACGTGGAAGT	0.23 kcal/mol
CTGGTCACGTGTAGTC	0.12 kcal/mol
ATCTACACGTGTTTGT	0.06 kcal/mol
TGCTTCACGTGATTGG	0.34 kcal/mol
CTTTGCACGTGAATTT	0.37 kcal/mol
AGCGACACGTGGGTCT	-0.04 kcal/mol
TTTAACACGTGAGATG	0.18 kcal/mol
GGATTCACGTGGGACT	0.3 kcal/mol
CATGCCACGTGGTGGG	-0.13 kcal/mol
ACCGTCACGTGGTGGT	0.03 kcal/mol
TGGGGCACGTGGTTAA	-0.15 kcal/mol
GATGTCACGTGTCTGG	0.16 kcal/mol
TGGAACACGTGCGTGT	-0.08 kcal/mol
TAGTGCACGTGATCTG	-0.08 kcal/mol

Sequence	relative binding free energy
TATCGCACGTGTCGGT	-0.12 kcal/mol
GTAGTCACGTGGAAGA	0.27 kcal/mol
GTAGCCACGTGGTAGG	-0.23 kcal/mol
TCGGACACGTGAGTGG	0.18 kcal/mol
GTGGACACGTGTGTGC	-0.1 kcal/mol
TAAAGCACGTGGATTT	-0.14 kcal/mol
ATTGACACGTGACGTT	0.23 kcal/mol
CCGGTCACGTGGGAGT	-0.05 kcal/mol
AGGGGCACGTGTAGTG	-0.09 kcal/mol
ATAAACACGTGTGGGC	0.01 kcal/mol
GTTGTCACGTGGGATC	0.02 kcal/mol
ACTCGCACGTGGGGTT	-0.13 kcal/mol
GTCTTCACGTGGTTCT	0.28 kcal/mol
TTAGGCACGTGTTTAC	-0.22 kcal/mol
CTGTTCACGTGTGCGT	0.22 kcal/mol
GGGGTCACGTGTGAAG	0.28 kcal/mol
GTAGGCACGTGTGGAA	0 kcal/mol
AATTTCACGTGGGCAT	0.14 kcal/mol
TTTATCACGTGTCTTT	0.23 kcal/mol
TATCTCACGTGCAGTT	0.45 kcal/mol
TCGTACACGTGATGGT	0.12 kcal/mol
AATATCACGTGTGAAT	0.12 kcal/mol
TAAAACACGTGTTGGT	0.12 kcal/mol
GTTTGCACGTGAGAGA	0.2 kcal/mol
TACAACACGTGGGTTT	-0.11 kcal/mol
CATGCCACGTGTGTTG	-0.07 kcal/mol

Sequence	relative binding free energy
AGTGCCACGTGGAGCG	-0.15 kcal/mol
TGAGGCACGTGAATCG	0.02 kcal/mol
GACTTCACGTGGGGGA	0.22 kcal/mol
CATTGCACGTGTTTTT	0.07 kcal/mol
GTTGACACGTGTGCTG	0.03 kcal/mol
GTTAGCACGTGGTTCG	-0.08 kcal/mol
CTTAGCACGTGCGGTT	-0.11 kcal/mol
CGAGTCACGTGGTGGG	-0.03 kcal/mol
GTAGGCACGTGTTGGA	-0.07 kcal/mol
GTCGTCACGTGAAGTG	0.23 kcal/mol
GTGTGCACGTGGTTCG	-0.05 kcal/mol
TGTTGCACGTGGCCTT	-0.06 kcal/mol
GTCGACACGTGGTTGG	0.11 kcal/mol
GTACACACGTGGGGAA	0.05 kcal/mol
ATTGGCACGTGGAAGC	-0.01 kcal/mol
TAAGACACGTGGTGCT	0.01 kcal/mol
TGCGACACGTGGGTGA	-0.16 kcal/mol
CTCGTCACGTGGGGGT	-0.1 kcal/mol
GGGTTCACGTGGTTCG	0.34 kcal/mol
CGGGCCACGTGGGTTG	-0.22 kcal/mol
TGTGGCACGTGGAGCT	-0.02 kcal/mol
TTAGTCACGTGCTTGA	0.11 kcal/mol
TGTAACACGTGGGAAG	-0.04 kcal/mol
ATAGGCACGTGTTGGC	-0.06 kcal/mol
TAATGCACGTGAGTGT	0.08 kcal/mol
ACTGGCACGTGATGGT	-0.03 kcal/mol

Sequence	relative binding free energy
ATCGTCACGTGGGGGC	-0.15 kcal/mol
GTGCACACGTGGGAGT	0.01 kcal/mol
GTTTTCACGTGATGTT	0.38 kcal/mol
AGTGTCACGTGAGTCA	0.37 kcal/mol
GACTTCACGTGGGTGT	0.29 kcal/mol
CAATGCACGTGGTTGG	-0.04 kcal/mol
GCTATCACGTGGAGTG	0.24 kcal/mol
CTTGGCACGTGTCGAG	0.13 kcal/mol
TTGGACACGTGAATAG	0.29 kcal/mol
AGGTACACGTGTGTAT	0.05 kcal/mol
GTTTTCACGTGGGGCG	0.32 kcal/mol
TAAGACACGTGTTGTT	0.01 kcal/mol
GTGGGCACGTGGTGAC	-0.18 kcal/mol
TGCTTCACGTGCTGTT	0.22 kcal/mol
TGTTACACGTGTCGAT	0.01 kcal/mol
TGGTCCACGTGGTGGG	-0.02 kcal/mol
CGGCACACGTGTGGGT	0.06 kcal/mol
ATTGTCACGTGGCGTT	0.15 kcal/mol
GGTACCACGTGTGCGG	-0.05 kcal/mol
GTGTTCACGTGAGAGG	0.49 kcal/mol
TGTACCACGTGTGGAG	-0.08 kcal/mol
GGACGCACGTGCGTGG	-0.12 kcal/mol
AATGGCACGTGGGTAA	-0.23 kcal/mol
AGGTGCACGTGTCTAG	-0.1 kcal/mol
AGTAGCACGTGTTTTG	-0.2 kcal/mol
TATATCACGTGATTAA	0.22 kcal/mol

Sequence	relative binding free energy
TATGTCACGTGGTAAT	0.02 kcal/mol
TAGATCACGTGAGGCT	0.25 kcal/mol
TGCATCACGTGGTAGT	0.04 kcal/mol
ATATTCACGTGATTAT	0.36 kcal/mol
GTGGTCACGTGTATTC	0.17 kcal/mol
ACTGTCACGTGTGTTA	-0.04 kcal/mol
CTTGTCACGTGCTAGG	0.15 kcal/mol
TGGAACACGTGTTTTG	-0.03 kcal/mol
GGGAGCACGTGTGGGG	-0.03 kcal/mol
GGTAGCACGTGGAAGA	-0.08 kcal/mol
AGTTTCACGTGCCGGG	0.36 kcal/mol
GGTCTCACGTGTGAGT	0.35 kcal/mol
GCGTTCACGTGATTAT	0.24 kcal/mol
AGGCACACGTGTGGTG	0.12 kcal/mol
TATTTCACGTGAAGCT	0.38 kcal/mol
GGATTCACGTGGCATA	0.42 kcal/mol
AGGTGCACGTGATGCG	0.04 kcal/mol
TTTATCACGTGAAGGA	0.41 kcal/mol
TTAAGCACGTGAGTGG	-0.01 kcal/mol
TGATTCACGTGTTAAG	0.35 kcal/mol
GGTGTCACGTGCGTCT	-0.07 kcal/mol
TAGGCCACGTGTAGGG	-0.21 kcal/mol
AGAGTCACGTGCATGT	0.01 kcal/mol
TATGACACGTGGAGCG	0.08 kcal/mol
ATGTGCACGTGGTATT	-0.12 kcal/mol
AGTGCCACGTGCTGGT	-0.15 kcal/mol

Sequence	relative binding free energy
TGTCGCACGTGGAGTG	-0.07 kcal/mol
TTTGGCACGTGCGGTA	-0.17 kcal/mol
GTGAGCACGTGGACAT	0.05 kcal/mol
TTTAGCACGTGGATGG	0.09 kcal/mol
TAGTGCACGTGCGTTA	-0.06 kcal/mol
AATTTCACGTGCGCGG	0.14 kcal/mol
GGCATCACGTGTGTAT	0.17 kcal/mol
GGGAACACGTGTGGTA	0.11 kcal/mol
TGATGCACGTGATTGT	0.1 kcal/mol
AGGTGCACGTGGGACA	-0.18 kcal/mol
GTAGACACGTGAATGG	0.33 kcal/mol
TGCGGCACGTGATGAT	-0.12 kcal/mol
TCGTTCACGTGGCTTA	0.2 kcal/mol
TGCGTCACGTGCGGCG	-0.09 kcal/mol
TGCGTCACGTGAAGTT	0.24 kcal/mol
ACAGTCACGTGGGGAA	0.05 kcal/mol
GTGGGCACGTGATAAT	0 kcal/mol
TTTATCACGTGAGACG	0.31 kcal/mol
TTTGTCACGTGAAATC	0.38 kcal/mol
GTTGTCACGTGTTAGG	0.19 kcal/mol
GTCTGCACGTGGAGTG	-0.04 kcal/mol
TGATACACGTGGTTGT	0.06 kcal/mol
TAATTCACGTGCAGTA	0.39 kcal/mol
TTGTACACGTGTTTCA	0.01 kcal/mol
GGAGTCACGTGAGGAT	0.33 kcal/mol
ATCGTCACGTGGTGCG	-0.08 kcal/mol

Sequence	relative binding free energy
ATTTTCACGTGAGTAT	0.38 kcal/mol
AACGTCACGTGGGGGA	-0.03 kcal/mol
TCTTGCACGTGTTTCG	-0.06 kcal/mol
GAGATCACGTGGGGGC	0.18 kcal/mol
GAATTCACGTGAGCGG	0.34 kcal/mol
TTGTACACGTGATCTA	0.15 kcal/mol
CGGGGCACGTGGAGGC	-0.11 kcal/mol
TGGTGCACGTGTAAAA	0.11 kcal/mol
TTGGGCACGTGATATG	0.02 kcal/mol
ATGGACACGTGAATTG	0.28 kcal/mol
CGAAACACGTGGGGGC	-0.06 kcal/mol
AAGGTCACGTGGCTTG	0.1 kcal/mol
GGTTCCACGTGGGATA	0.09 kcal/mol
TGCGACACGTGGTCGG	-0.11 kcal/mol
TGTTACACGTGTATAG	0.14 kcal/mol
TTAGACACGTGATATG	0.07 kcal/mol
GTGTGCACGTGTCTTT	0.08 kcal/mol
GTGCGCACGTGAGGAT	0.21 kcal/mol
GGGTCCACGTGATTAG	0.19 kcal/mol
GGTTCCACGTGGAATG	0.24 kcal/mol
TGTATCACGTGCAGCT	0.14 kcal/mol
GATGGCACGTGGCGGA	-0.19 kcal/mol
